Data on 120 sequences can be found in the supplement of paper PMC10126150.

In the series the test system is ATP. The series is described as follows: switch fluorescence ratio, 500 uM ATP over buffer (Cy3 cluster intensity, sum of 5 cycles each) (fold (ratio)); higher = stronger signal-on switching upon ATP binding; sequences stand for … in TCGTCGGCAGCGTCAGATGTGTATAAGAGACAGTTTTTTTTTTTTTTTTTTTTTTTTT…TC. Particulars: aptamer strand: ATP DNA aptamer (quencher-CACCTGGGGGAGTATTGCGGAGGAAGG + anchor), 100 nM annealed; ATP concentration: 500 uM; one replicate. In outline:
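Clusters carrying Cy3-labelled switching strands on a modified Illumina MiSeq flow-cell were annealed to 100 nM quencher-labelled ATP aptamer and imaged in selection buffer. They were imaged again after 15 min with 500 uM ATP at 22 °C, over five buffer/ATP cycles with NaOH stripping and re-annealing in between. For each cluster, the fluorescence ratio is the summed Cy3 intensity of the target cycles divided by that of the buffer cycles, averaged per switch-domain sequence. Clusters outside 100-1000 RFU were left out.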

Sequences with one replicate were seen in a single cluster, so their values are uncertain.
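Note: ATP exposure 15 min at 22 °C before imaging.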

For CCGATTAAGT, the switch fluorescence ratio came to 1.02.

Take ATTATACAAT: the switch fluorescence ratio came out at 1.03.

As to ATCAAAGCAA, the switch fluorescence ratio worked out at 2.38.

Take GGCGGAGCGG: the switch fluorescence ratio is 0.98.

Consider TTTGGGCAAT, for which the switch fluorescence ratio amounted to 1.14.

Consider ATGTGGAAG, for which the switch fluorescence ratio came to 0.958.

As to TCGTATGATT, the switch fluorescence ratio came to 0.966.

As to ACGGTTTAGT, the switch fluorescence ratio came to 0.998.

For ATAATTGGAA, the switch fluorescence ratio is 0.992.

Regarding CACTCTAGTC, the switch fluorescence ratio worked out at 1.02.

With ATTCTGGCAG, the switch fluorescence ratio stood at 1.02.

For the sequence TCTGTCTCTA, the switch fluorescence ratio was determined as 0.994.

In the case of TAGAAATCGA, the switch fluorescence ratio was found to be 1.01.

As to GTTTTCTAGT, the switch fluorescence ratio was found to be 0.978.

For AGGTAACTAC, the switch fluorescence ratio worked out at 1.01.

In the case of TGCCTCGGTG, the switch fluorescence ratio turned out to be 1.03.

Take TAGGCCTTGC: the switch fluorescence ratio amounted to 1.06.

On to CAGAAGGCAC, for which the switch fluorescence ratio is 1.06.

For the sequence AATCCTAAAA, the switch fluorescence ratio worked out at 0.984.

As to ATCAATGTCC, the switch fluorescence ratio was found to be 1.03.

For AATAATGTCA, the switch fluorescence ratio stood at 1.

GCCGGGGTAA: the switch fluorescence ratio is 0.95.

Take ATGGCGTGCG: the switch fluorescence ratio turned out to be 1.

Consider ACAACAGATC, for which the switch fluorescence ratio was 1.03.

For the sequence CACTGCGCA, the switch fluorescence ratio came to 1.5.

Turning to GGGCTAACTT, the switch fluorescence ratio came to 0.983.

Regarding CAATGCAGAG, the switch fluorescence ratio worked out at 1.

ACAATCACTG: the switch fluorescence ratio is 1.22.

For TAGCCGGTGG, the switch fluorescence ratio was 1.05.

Turning to CGTTCGTGCG, the switch fluorescence ratio is 0.996.

With GTAACTGTAC, the switch fluorescence ratio turned out to be 1.58.

Regarding TCAGCTTAT, the switch fluorescence ratio came to 0.991.

On to TTTCACCGTG, for which the switch fluorescence ratio was 1.05.

CCACGGCATG: the switch fluorescence ratio was 1.29.

As to CTTAACGAAA, the switch fluorescence ratio came out at 1.01.

As for TTAACGCAGT, the switch fluorescence ratio was determined as 1.03.

Take CTTGATTGTG: the switch fluorescence ratio came out at 0.992.

Regarding GCCACCCAAA, the switch fluorescence ratio is 1.

On to CTGATCGTA, for which the switch fluorescence ratio came out at 0.981.

For the sequence GGGAATGATG, the switch fluorescence ratio was found to be 0.945.

Turning to GACGAGAACG, the switch fluorescence ratio amounted to 1.1.

With CAGTGGTGTA, the switch fluorescence ratio came to 0.954.

As for CGAGGGCACT, the switch fluorescence ratio was determined as 1.04.

As for AGGTCGTACG, the switch fluorescence ratio is 1.

As for CAACTGAAGA, the switch fluorescence ratio was found to be 0.969.

Regarding GCCGACAGTC, the switch fluorescence ratio amounted to 1.04.

In the case of GCGCTTTTTA, the switch fluorescence ratio was determined as 1.03.

As to GTGTACAGTT, the switch fluorescence ratio is 0.974.

Regarding ATAGTGTCAT, the switch fluorescence ratio is 0.988.

For the sequence ATAGAAGTCT, the switch fluorescence ratio is 0.998.

As to TACGTGATTG, the switch fluorescence ratio worked out at 1.07.

Consider GGGTCACTTA, for which the switch fluorescence ratio is 1.03.

For the sequence GGCTCTCTAC, the switch fluorescence ratio was found to be 1.11.

Turning to TGTACTTTA, the switch fluorescence ratio was 1.04.

On to TGCTATAGGA, for which the switch fluorescence ratio amounted to 0.987.

As to CCAATTGAGC, the switch fluorescence ratio was found to be 0.947.

As for GGGACTGGAT, the switch fluorescence ratio is 1.04.

Take AGGTGGTC: the switch fluorescence ratio worked out at 0.928.

Turning to AGTGGATGAC, the switch fluorescence ratio came to 1.04.

As for CAGTAGGGTG, the switch fluorescence ratio stood at 1.

With GAACGTCTGG, the switch fluorescence ratio turned out to be 1.06.

As for TCGTTATAAC, the switch fluorescence ratio worked out at 0.981.

TTCCCAGGGG: the switch fluorescence ratio was determined as 4.38.

As to GTGGAGAAAA, the switch fluorescence ratio is 0.994.

On to GGTAGCGGCA, for which the switch fluorescence ratio worked out at 1.

On to TTCCAAAATA, for which the switch fluorescence ratio worked out at 0.999.

Take CTGATGTCCG: the switch fluorescence ratio came to 1.02.

In the case of AACTTATCTT, the switch fluorescence ratio was 0.933.

In the case of ATGCGTCCAA, the switch fluorescence ratio is 1.02.

With GGATGGGAAT, the switch fluorescence ratio is 0.989.

For the sequence TCTTTCGGAT, the switch fluorescence ratio was determined as 0.98.

On to TGTCACAGAT, for which the switch fluorescence ratio amounted to 1.01.

GATAGATACT: the switch fluorescence ratio was 0.996.

In the case of CCCTCAGGGG, the switch fluorescence ratio turned out to be 1.24.

Take ACCTGGTTAG: the switch fluorescence ratio is 0.993.

Take GGCTTATTTA: the switch fluorescence ratio turned out to be 0.996.

Take GTCACAGAA: the switch fluorescence ratio was 1.04.

Consider TTAGCTTTTA, for which the switch fluorescence ratio turned out to be 1.

Take GCCGATTCAA: the switch fluorescence ratio was 1.16.

In the case of GGGCTGCAGT, the switch fluorescence ratio came out at 0.985.

Turning to TAAACCCCAA, the switch fluorescence ratio was determined as 1.05.

Regarding GCGAACTGAT, the switch fluorescence ratio was 0.994.

On to CGGGCTTGCC, for which the switch fluorescence ratio stood at 1.04.

As to CGCGTATCAT, the switch fluorescence ratio is 0.998.

As to AGATTGATAG, the switch fluorescence ratio stood at 1.01.

Turning to TCATTTGACT, the switch fluorescence ratio was found to be 0.998.

For AATGCCTTGT, the switch fluorescence ratio amounted to 1.

Consider TCATCCATAT, for which the switch fluorescence ratio is 1.04.

TAGAGGCAG: the switch fluorescence ratio was 0.971.

On to GGACTTAGCT, for which the switch fluorescence ratio came out at 0.974.

For GGGTTTAGCC, the switch fluorescence ratio is 0.996.

Turning to GTTGGGAAG, the switch fluorescence ratio was 1.01.

Turning to GGGGTAACGC, the switch fluorescence ratio was 1.06.

Consider GTTAGATCCC, for which the switch fluorescence ratio is 0.982.

On to CTGCAAGCTT, for which the switch fluorescence ratio was determined as 1.35.

On to AAGGCTAGAG, for which the switch fluorescence ratio was determined as 1.

On to CACGCTTTGA, for which the switch fluorescence ratio stood at 1.02.

TGAGGCGTTT: the switch fluorescence ratio was 1.01.

As to GACTAAGCGA, the switch fluorescence ratio was determined as 1.66.

ACTGGGATAA: the switch fluorescence ratio was 1.03.

Turning to ACATGATTA, the switch fluorescence ratio was 0.985.

Take AGACGTAATA: the switch fluorescence ratio stood at 1.67.

Regarding CGAATTTGGC, the switch fluorescence ratio was 1.01.

As for CCAAAGTACA, the switch fluorescence ratio was determined as 1.22.

For TGGTCCCATT, the switch fluorescence ratio amounted to 1.04.

In the case of CACTTTCATA, the switch fluorescence ratio was 1.02.

TACAGGT: the switch fluorescence ratio was found to be 1.01.

With CCGGTGGAAA, the switch fluorescence ratio was 1.05.

Consider TCCAGCAGTA, for which the switch fluorescence ratio came to 1.25.

TACCGCCATG: the switch fluorescence ratio was found to be 1.2.

For CTATTGTGTT, the switch fluorescence ratio came out at 0.979.

Regarding TTCGCTGCGT, the switch fluorescence ratio turned out to be 1.02.

With ACATGCGCTT, the switch fluorescence ratio was 1.04.

For the sequence AGGGCAACCT, the switch fluorescence ratio was 1.05.

As to ATAACGGTGT, the switch fluorescence ratio amounted to 1.03.

In the case of GCGCATCGAG, the switch fluorescence ratio is 1.08.

As to CTGCTCAATC, the switch fluorescence ratio came to 2.18.

Turning to TACATCTATT, the switch fluorescence ratio stood at 0.985.

As to GAGGCATGAG, the switch fluorescence ratio was found to be 1.1.

For TCGAATCGCA, the switch fluorescence ratio stood at 1.35.
